From PubChem BioAssay AID624417 (National Center for Advancing Translational Sciences (NCATS), 2012)
Screen size: about 410,000 compounds; about 6,400 (1.6%) were called active. Inconclusive results, whose numbers are uncertain, are shown with a selection of clear calls. The call rests on the fitted dose curve; in most records, active means well fitted inhibition curve with a large enough effect; inconclusive means small, poorly fitted or top-dose-only effect; inactive means no such curve, though single readings can be large or run the other way. No potency is given beside an inconclusive call; the fits are too rough.

These compounds were tested against Glucagon-like peptide 1 receptor (Homo sapiens) (UniProt P43220) (assay: qHTS of GLP-1 Receptor Inverse Agonists (Inhibition Mode)). Details: HEK293 GLP-1R CRE-luciferase, luminescence, 24 h, GLP-1R form is constitutively active; activity change, negative = inhibition: at 38.3 µM (top of the series) unless noted.
UniProt P43220, sequence (P43220 whole entry, looked up): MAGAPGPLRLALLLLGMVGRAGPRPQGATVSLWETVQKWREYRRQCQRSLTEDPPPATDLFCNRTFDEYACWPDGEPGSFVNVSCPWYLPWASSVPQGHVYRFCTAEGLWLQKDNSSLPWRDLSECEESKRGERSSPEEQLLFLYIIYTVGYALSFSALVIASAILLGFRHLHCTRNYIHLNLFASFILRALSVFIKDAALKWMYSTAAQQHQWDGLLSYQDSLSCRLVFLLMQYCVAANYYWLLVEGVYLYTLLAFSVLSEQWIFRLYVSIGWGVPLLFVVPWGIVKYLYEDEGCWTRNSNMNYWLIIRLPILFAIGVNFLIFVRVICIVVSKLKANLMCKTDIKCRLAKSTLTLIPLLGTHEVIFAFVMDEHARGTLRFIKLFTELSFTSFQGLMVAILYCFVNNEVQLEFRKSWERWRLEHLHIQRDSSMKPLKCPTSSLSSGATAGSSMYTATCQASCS
Summary of the method: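 Luminescence readout: a drop in cAMP-driven luciferase signal flags inverse agonism at a constitutively active GLP-1R stably expressed in HEK293. Compound exposure lasted 24 hr at 37 deg C, 5% CO2.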
Further: nearly all actives have a fitted effect of over 55% in size.
On the % scale 0 is the no-effect control and ±100 the full control effect; potency means the concentration at half of the fitted maximal effect; tags describe the fitted curve by direction and shape.

SMILES | Potency | activity change, negative = inhibition
Cc1ccc(CN(Cc2ccco2)C(=O)COc2c(C)cc(C)cc2C)cc1 | active: 2.82 µM | –
O=C(NC1CC2CCCC(C1)N2S(=O)(=O)c1ccccc1)C1CCCCC1 (stereo not drawn) | inconclusive [inhibitor, partial curve, poor fit] | –
CCOC(=O)c1c(NC(=O)C2C3C=CC(C3)C2C(=O)O)sc2c1CC(C)CC2 (stereo not drawn) | inconclusive [inhibitor, partial curve, poor fit] | –
COc1ccc([C@H]2CC(=O)C=C(c3ccc(Cl)c(F)c3)C2)cc1 | inconclusive [inhibitor, single point] | –
Cc1noc(C)c1CSCC(=O)Nc1ccccc1N1CCCC1 | inconclusive [inhibitor, single point] | –
COc1ccc(CCNC(=S)N2CCN(S(=O)(=O)c3ccccc3F)CC2)cc1 | inconclusive [inhibitor, single point] | –
CCOC(=O)C1CCN(C(=O)c2ccc3c(Cl)c4c(nc3c2)CCCC4)CC1 | inconclusive [inhibitor, single point] | –
O=C(NCc1nnc2c(C(F)(F)F)cc(Cl)cn12)C1CCCC1 | inconclusive [inhibitor, partial curve, poor fit] | –
CSc1ccccc1NC(=O)C1CC(c2c(F)cccc2Cl)=NO1 (stereo not drawn) | inconclusive [inhibitor, partial curve] | –
CCOC(=O)Cc1cc(-c2ccccc2)nc2ccc3ccccc3c12 | inconclusive [inhibitor, partial curve, poor fit] | –
O=C(NCCCN1CCCC1=O)c1cccc(N2CCCC2=O)c1 | – | inactive: 0.608%
Cc1cc(C)cc(N=c2c([N+](=O)[O-])nn(-c3ccc4c(c3)OCCO4)n2O)c1 | inconclusive [inhibitor, partial curve, poor fit] | –
O=C(Nc1ccc(CN2CCOCC2)cc1)c1cc2ccccn2n1 | inconclusive [inhibitor, partial curve, poor fit] | –
Cc1ccc2c(CC(=O)NC3CCCc4ccccc43)coc2c1 (stereo not drawn) | inconclusive [inhibitor, single point] | –
CCn1c(-c2cc(Cl)ccc2OC)n[nH]c1=S | – | inactive: 6.36%
CC(C)Cn1c(N)c(C(=O)COC(=O)c2cccnc2Cl)c(=O)n(C)c1=O | – | inactive: -2.3%
C=CCn1c(O)c(N=NC(=S)Nc2cccc(C)c2)c2ccccc21 | inconclusive [inhibitor, full curve, poor fit] | –
O=C(COC(=O)c1cc(=O)[nH]c2ccccc12)c1cccs1 | – | inactive: 5.86%
Cc1csc(NC(=O)COCC(=O)O)c1-c1nc2ccccc2s1 | inconclusive [inhibitor, single point] | –
Cc1cccc(-n2ncc3c2CCCC3NC(=O)Cc2c(C)noc2C)c1C (stereo not drawn) | – | inactive: 7.1%
CCOc1ccc2c(c1)-c1c(ssc1=S)C(C)(C)N2C(=O)c1ccco1 | inconclusive [inhibitor, partial curve, poor fit] | –

SMILES | Potency | activity change, negative = inhibition
CC1(C)Cc2c(cnn2-c2ccc(F)cc2)C(NC(=O)c2ccco2)C1 (stereo not drawn) | – | inactive: -15.5%
O=c1[nH]c(/C(=N\O)c2ccccc2)no1 | inconclusive [inhibitor, partial curve, poor fit] | –
O=C(CCCc1nc2ccccc2s1)NCc1ccc(F)cc1 | inconclusive [inhibitor, partial curve] | –
OCCN=c1cc(-c2ccccc2)oc2ccc(Cl)cc12 | inconclusive [inhibitor, single point] | –
COc1ccc(NCc2nc3ccccc3n2C)cc1 | – | inactive: -18%
COc1ccc(S(=O)(=O)n2nc(-c3ccc(Cl)cc3)cc2N)cc1OC | inconclusive [inhibitor, single point] | –
CC(=O)Nc1ccc(S(=O)(=O)Nc2nc3ccccc3nc2-n2ccc(=NC(=O)c3ccccc3)cc2)cc1 | inconclusive [inhibitor, single point] | –
O=C(CSc1nc(-c2ccc(Cl)cc2)cs1)Nc1cccc([N+](=O)[O-])c1 | active: 10 µM | –
COc1ccccc1NC(=O)c1nc(S(=O)(=O)Cc2ccccc2)ncc1Cl | – | inactive: 4.57%
Cc1ccc(S(=O)(=O)Nc2cc(C(F)(F)F)ccc2N2CCOCC2)c(C)c1 | inconclusive [inhibitor, partial curve, poor fit] | –
CN(C)S(=O)(=O)c1ccc(Cl)c(NC(=O)CN2CCN(c3ccccn3)CC2)c1 | inconclusive [inhibitor, single point] | –
CN(C)Cc1csc(NC(=O)Nc2ccccc2-c2ccccc2)n1 | inconclusive [inhibitor, partial curve, poor fit] | –
O=C(CSCc1c(Cl)cccc1Cl)Nc1ccccc1-c1ccccc1 | inconclusive [inhibitor, single point] | –
CC1(C(=O)Nc2cccc(C(F)(F)F)c2)Cc2ccccc2C(=O)O1 (stereo not drawn) | inconclusive [inhibitor, single point] | –
CC1CCN(CC(=O)N2CCCc3c2c(=O)oc2ccc(OCc4ccccc4)cc32)CC1 | inconclusive [inhibitor, partial curve, poor fit] | –
CCCOc1ccc(Br)cc1CSC(=N)N | inconclusive [inhibitor, partial curve, poor fit] | –
O=C(N1CCN(c2cccc(Cl)c2)CC1)C1(S(=O)(=O)c2ccc(Cl)cc2)CC1 | inconclusive [inhibitor, partial curve, poor fit] | –
CCOC(=O)C1(CC)Oc2ccccc2C(c2ccc(OC)cc2)=C1C(=O)OC (stereo not drawn) | inconclusive [inhibitor, single point] | –
CCN1CCCC1CNC(=O)c1ccc2c(c1)N(Cc1ccccc1F)C(=O)c1ccccc1S2(=O)=O (stereo not drawn) | inconclusive [inhibitor, single point] | –
CC1(C(=O)NS(=O)(=O)Cc2cccc(Cl)c2)CCN1C(=O)C1(c2ccc(Cl)cc2)CCC1 (stereo not drawn) | inconclusive [inhibitor, full curve, poor fit] | –
O=C1Nc2ccc(Br)cc2C1Cc1ccccc1F (stereo not drawn) | inconclusive [inhibitor, single point] | –

SMILES | Potency | activity change, negative = inhibition
CCc1nc2ccccc2nc1N1CCN(S(=O)(=O)c2ccccc2)CC1 | – | inactive: -17.7%
CSc1nc2ccccc2nc1N(C)S(=O)(=O)c1ccc(C)cc1 | inconclusive [inhibitor, partial curve, poor fit] | –
C/C(=N\NC(=O)c1ccc(N2CCCC2=O)cc1)c1ccc(O)cc1O | inconclusive [inhibitor, partial curve, poor fit] | –
CC(C)CCn1c(C(C)O)nc2ccccc21 (stereo not drawn) | inconclusive [inhibitor, single point] | –
CCSc1ccc([C@@H]2[C@@H]3C(=O)N(CC)C(=O)[C@@H]3[C@]3(C(=O)OC)CCCCN23)cc1OC | inconclusive [inhibitor, single point] | –
CSC1=NC(C(Cl)(Cl)Cl)N=C(c2ccccc2)N1 (stereo not drawn) | inconclusive [inhibitor, partial curve, poor fit] | –
O=C(Nc1ccc2c(c1)OCO2)C1CCCN(c2nc3ccccc3s2)C1 (stereo not drawn) | inconclusive [inhibitor, partial curve, poor fit] | –
C=C(C)CNC(=O)c1ccc2nc(Cc3ccc(OC)cc3)oc2c1 | – | inactive: 7.32%
COc1ccc(C(c2c(C)n(C)n(-c3ccccc3)c2=O)c2c(C)n(C)n(-c3ccccc3)c2=O)cc1O | inconclusive [inhibitor, single point] | –
Cc1cc2nc(-c3ccccc3)c(CC(C)(C)C)n2c(C)c1Br | inconclusive [inhibitor, single point] | –
O=C(CSc1ncnc2ccccc12)Nc1cc(S(=O)(=O)N2CCCCC2)ccc1Cl | inconclusive [inhibitor, single point] | –
CC(C)=C1C(=O)NN(c2ccc(F)c(Cl)c2)C1=O | inconclusive [inhibitor, partial curve] | –
CCOc1ccc(NC(=O)N2CC=C(n3c(=O)[nH]c4ccccc43)CC2)cc1 | inconclusive [inhibitor, partial curve] | –
Cc1cc(O)cc(C)c1NS(=O)(=O)c1ccc2ccccc2c1 | inconclusive [inhibitor, partial curve, poor fit] | –
O=C(NCCOc1ccccc1)c1ccccc1NC(=O)C1CCCO1 (stereo not drawn) | inconclusive [inhibitor, single point] | –
COC(=O)c1ccccc1NC(=O)c1ccc(COc2ccccc2)o1 | inconclusive [inhibitor, single point] | –
Cc1cc2n(n1)SC(Nc1cccc3ccccc13)N2 (stereo not drawn) | – | inactive: 0%
COc1ccc(C(=O)N2CCCC(Nc3ccc(C)c(C)c3)C2)cc1 (stereo not drawn) | inconclusive [inhibitor, full curve, poor fit] | –
C[C@@H]1CN([C@@H](C)CO)S(=O)(=O)c2ccc(C#Cc3cccc(F)c3)cc2O[C@@H]1CN(C)CC1CC1 | inconclusive [inhibitor, single point] | –
CC(C)(C)NC(=O)CON=C1c2ccccc2-c2ccccc21 | inconclusive [inhibitor, partial curve, poor fit] | –
Cc1ccc(-n2nc3cc(C)c(N)cc3n2)cc1 | inconclusive [inhibitor, partial curve, poor fit] | –
